Measurements reported in the antibiotic and cytotoxicity screens of Wong et al. (2023).
The list shows a part of the results.

What was measured:
HSkMC = human skeletal muscle cells; assay: cytotoxicity call (relative viability < 0.9); conditions: 10 µM
HepG2 = assay: cytotoxicity call (relative viability < 0.9); conditions: 10 µM
S. aureus RN4220 = assay: growth inhibition call (relative growth <= 0.2); conditions: 50 µM

Compound | cytotoxicity call (HSkMC) | cytotoxicity call (HepG2) | growth inhibition call (S. aureus RN4220)
COc1ccc(S(=O)(=O)Nc2ccc3c(c2)CC(=O)N([C@@H](C)CO)C[C@H](C)[C@H](CN(C)S(=O)(=O)c2ccc(F)cc2)O3)cc1 | inactive | inactive | inactive
C[C@@H]1CN([C@H](C)CO)S(=O)(=O)c2ccc(C#CC3(O)CCCC3)cc2O[C@@H]1CN(C)C(=O)Nc1cccc(F)c1 | inactive | inactive | inactive
COC(=O)N[C@H](C(=O)N1CCC[C@H]1c1nc(-c2ccc(-c3ccc(-c4c[nH]c([C@@H]5CCCN5C(=O)[C@@H](NC(=O)OC)C(C)C)n4)cc3)cc2)c[nH]1)C(C)C | inactive | inactive | inactive
C[C@H](CO)N1C[C@H](C)[C@@H](CN(C)Cc2ccc(-c3ccccc3)cc2)Oc2c(NC(=O)Nc3ccccc3)cccc2C1=O | inactive | inactive | inactive
COCCNC(=O)C[C@H]1C[C@H]2c3cc(NS(C)(=O)=O)ccc3O[C@H]2[C@@H](CO)O1 | inactive | inactive | inactive
Cc1ccc(S(=O)(=O)N(C)C[C@@H]2Oc3ccc(NS(=O)(=O)c4cn(C)cn4)cc3C(=O)N([C@H](C)CO)C[C@H]2C)cc1 | inactive | inactive | inactive
COc1ccc2c3c([nH]c2c1)[C@H](CO)N(C[C@]13CCN(CC1)C(=O)CN(C)C)S(=O)(=O)C | inactive | inactive | inactive
COc1ccc(NC(=O)N(C)C[C@@H]2OCCCC[C@H](C)Oc3ccc(NC(=O)Nc4ccc(C(F)(F)F)cc4)cc3C(=O)N([C@H](C)CO)C[C@@H]2C)cc1 | inactive | inactive | inactive
C[C@@H]1CN([C@H](C)CO)C(=O)c2cc(NS(C)(=O)=O)ccc2O[C@@H](C)CCCCO[C@@H]1CN(C)S(=O)(=O)c1ccc(F)cc1 | inactive | inactive | inactive
O=C(C[C@H]1C=C[C@@H](NC(=O)c2cccc(F)c2)[C@H](CO)O1)NCCN1CCCC1 | inactive | inactive | inactive
CCCCOc1ccc(C(=O)CCN2CCCCC2)cc1.Cl | inactive | active | inactive
C[C@@H]1CN([C@@H](C)CO)C(=O)c2cc(NS(=O)(=O)c3ccc(Cl)cc3)ccc2O[C@@H](C)CCCCO[C@@H]1CN(C)C(=O)c1ccccc1 | inactive | inactive | inactive
C[C@@H]1CN([C@@H](C)CO)C(=O)c2cc(NC(=O)CCCN(C)C)ccc2O[C@H]1CN(C)S(=O)(=O)c1ccc(Cl)cc1 | inactive | inactive | inactive
CCOC(=O)C1CCN(C)CC1 | inactive | inactive | inactive
Cc1ccc(S(=O)(=O)N2C[C@@H](O)COC[C@@H]3O[C@@H](CC(=O)NCCN4CCCCC4)CC[C@H]32)cc1 | inactive | inactive | inactive
CCS(=O)(=O)N1CC[C@]2(CC1)CN(Cc1ccc3c(c1)OCO3)[C@@H](CO)c1c2c2ccc(cc2n1C)OC | inactive | inactive | inactive
CC(C)NC(=O)Nc1ccc2c(c1)C(=O)N([C@H](C)CO)C[C@H](C)[C@@H](CN(C)S(=O)(=O)c1cccs1)O2 | inactive | inactive | inactive
CC(C)NC(=O)N(C)C[C@H]1Oc2ccc(NC(=O)CCN3CCOCC3)cc2C(=O)N([C@H](C)CO)C[C@H]1C | inactive | inactive | inactive
C[C@H](CO)N1C[C@H](C)[C@H](CN(C)Cc2ccncc2)Oc2ncc(C#Cc3cccc(F)c3)cc2C1=O | inactive | inactive | inactive
C[C@@H]1CN([C@H](C)CO)C(=O)c2cc(NC(=O)Nc3ccc(C(F)(F)F)cc3)ccc2O[C@@H](C)CCCCO[C@H]1CN(C)Cc1ccc2c(c1)OCO2 | active | active | inactive
Cc1noc(C)c1S(=O)(=O)Nc1ccc2c(c1)C(=O)N([C@@H](C)CO)C[C@H](C)[C@H](CN(C)Cc1ccccc1)OCCCC[C@@H](C)O2 | inactive | inactive | inactive
CC(C)(O)/C=C/C(=O)[C@](C)(O)[C@H]1[C@H](O)C[C@@]2(C)[C@@H]3CC=C4[C@@H](C=C(O[C@@H]5O[C@H](CO)[C@@H](O)[C@H](O)[C@H]5O)C(=O)C4(C)C)[C@]3(C)C(=O)C[C@]12C | inactive | inactive | inactive
C[C@@H]1CCCCO[C@@H](CN(C)C(=O)NC2CCCCC2)[C@@H](C)CN([C@@H](C)CO)C(=O)c2cc(NC(=O)Nc3ccccc3)ccc2O1 | inactive | inactive | inactive
CC(C)=CCCC(C)C1CCC2(C)C3=C(CCC12C)C1(C)CCC(O)C(C)(C)C1CC3 (configuration not stated) | inactive | inactive | inactive
